Test results: PubChem BioAssay AID881 (National Center for Advancing Translational Sciences (NCATS), 2007)
Among all 110,000 compounds or so, about 610 (0.55%) were called active. This list was built around the results that the source calls inconclusive (neither active nor inactive); the mix of calls is not that of the screen. Calls come from the whole dose curve; as a rule, active = well fitted inhibition curve with a large enough effect; inconclusive = small, poorly fitted or top-dose-only effect; inactive = no such curve, though single readings can be large or run the other way. Where the call is inconclusive, the potency comes from a doubtful curve fit.

Molecular target: Polyunsaturated fatty acid lipoxygenase ALOX15B (Homo sapiens) (UniProt O15296)
Test: qHTS Assay for Inhibitors of 15-hLO-2 (15-human lipoxygenase 2); note: nearly all actives have a fitted effect of over 60% in size
Conditions: purified 15hLO-2, xylenol orange hydroperoxide absorbance; activity change, negative = inhibition: at 57.1 µM (top of the series) unless noted
Text: Assay Overview: NIH Molecular Libraries Screening Centers Network [MLSCN] NIH Chemical Genomics Center [NCGC] MLSCN Grant: MH081283-01A1 PI Name: Holman, T.R., University of California, Santa Cruz Human lipoxygenase 15hLO-2 is a member of the closely related lipoxygenase family of enzymes which catalyze the site-specific oxidation of arachidonic acid to various hormone precursor molecules and as such is a candidate for drug development in a variety of disease areas, such as cancer and inflammation. Inhibition of 15hLO-2 activity was screened by utilizing arachidonic acid as a substrate. The extent of hydroperoxide product formation was measured by a secondary chromogenic reaction in which xylenol orange (XO, Sigma-Aldrich, cat. number 39,818-7) reacts with the ferric ions produced from the reaction between the hydroperoxide and ferrous ions. The Fe(III)-XO complex is characterized with red-shifted absorbance at 560 nm. A purified preparation of human 15hLO-2 was supplied by Professor Ted Holman, University of California, Santa Cruz.
Assay Protocol: Buffer: 25 mM Hepes pH 7.5, 0.01% Triton X-100. Reagents/Controls: Buffer in columns 3 and 4 as negative control (no enzyme). Substrate solution: 45 uM arachidonic acid (Sigma-Aldrich, St. Louis, MO) final concentration dispensed throughout the plate. Enzyme: 50 nM 15hLO-2 final concentration in columns 1, 2, 5-48. Column 1 is neutral (100% activity). Column 2 contained pin-transferred titration of NDGA (nordihidroguaiaretic acid, Sigma-Aldrich, N 5023, top concentration 10 mM in DMSO, then 1:2 dilution in duplicate). (Dilution factor: 23 nL into 4 uL.) Chromogenic detection reagent (divalent iron/xylenol orange, Fe-XO): 200 uM xylenol orange plus 300 uM ferrous ammonium sulfate prepared freshly in 50 mM sulfuric acid. Assay Steps: Three uL of enzyme were dispensed to 1536-well Greiner black clear bottom plates. Compounds and controls (23 nL) were transferred via Kalypsys PinTool. The plates were incubated for 15 min at room temperature, and then 1 uL of substrate solution was added to start the reaction. After room temperature incubation for 90 minutes, 4 uL of Fe-XO solution was added to each well followed by a short spin (1000 rpm, 15 sec) and the plates were then incubated for 30 min. The absorbance at 405 and 573 nm were measured using ViewLux (Perkin-Elmer) High-throughput CCD imager and absorbance protocol settings. The 573-to-405 absorbance ratio was used to compute reaction progress.
% is set by controls: 0 for no effect and ±100 for the full control effect; potency is the fitted concentration of half-maximal effect; tags give direction and shape of the fitted curve.

Chain of UniProt O15296 (O15296 whole entry, looked up): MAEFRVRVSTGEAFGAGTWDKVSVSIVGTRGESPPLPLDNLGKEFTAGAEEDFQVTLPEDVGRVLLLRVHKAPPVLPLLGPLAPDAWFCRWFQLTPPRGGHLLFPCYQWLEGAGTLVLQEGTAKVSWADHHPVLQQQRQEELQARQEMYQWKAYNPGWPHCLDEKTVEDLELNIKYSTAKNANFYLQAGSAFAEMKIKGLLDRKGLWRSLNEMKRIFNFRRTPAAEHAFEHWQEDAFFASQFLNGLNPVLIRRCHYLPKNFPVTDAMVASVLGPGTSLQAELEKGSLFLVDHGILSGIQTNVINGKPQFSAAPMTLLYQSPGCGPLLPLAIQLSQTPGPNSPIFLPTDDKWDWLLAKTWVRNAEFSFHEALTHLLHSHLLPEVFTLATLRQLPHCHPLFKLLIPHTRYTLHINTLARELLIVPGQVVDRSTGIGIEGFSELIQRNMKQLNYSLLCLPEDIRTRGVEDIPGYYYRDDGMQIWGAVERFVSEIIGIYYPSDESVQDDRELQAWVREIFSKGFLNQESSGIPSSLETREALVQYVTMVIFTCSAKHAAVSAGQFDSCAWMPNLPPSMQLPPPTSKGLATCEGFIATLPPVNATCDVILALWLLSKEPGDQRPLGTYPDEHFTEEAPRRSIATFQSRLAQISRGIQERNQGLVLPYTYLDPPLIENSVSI

Q: How did the Potency turn out when `Cc1noc(C)c1S(=O)(=O)N1CCC2(CC1)OCCO2` was run?
A: inconclusive: 0.316 µM [inhibitor, full curve, poor fit]

Q: Which “activity change, negative = inhibition” value does the source give for `Cc1cc(S(=O)(=O)N2CCN(c3c(C)cccc3C)CC2)ccc1F` here?
A: inactive: -15.3%

Q: `O=C(O)[C@@H](O)c1ccc(F)cc1` was tested. Which activity change, negative = inhibition did it give?
A: inactive: -1.87% [at 11.4 µM]

Q: `CN(C)c1ccc(N=Cc2ccco2)cc1` was tested. Which Potency did it give?
A: active: 31.6 µM

Q: With `NC(=O)CS(=O)C[C@H](N)C(=O)O` (stereo partly specified) as the molecule, how does the activity change, negative = inhibition read?
A: inactive: 20.3% [at 11.4 µM]

Q: `Cc1ccc(C(=O)/C=C/c2c[nH]c3ccccc23)cc1` was tested. Which Potency did it give?
A: inconclusive: 12.6 µM [inhibitor, partial curve]

Q: With `O=S(=O)(c1ccc2nc(-c3ccco3)c(-c3ccco3)nc2c1)N1CCOCC1` as the molecule, how does the Potency read?
A: inconclusive: 2 µM [inhibitor, full curve]

Q: How did the Potency turn out when `O=S(=O)(/N=C(/Sc1ccccc1)c1ccccc1)c1ccccc1` was run?
A: inconclusive: 20 µM [inhibitor, single point]

Q: For `CC1Oc2ccccc2C=C1/C=C1/SC(N2CCOCC2)=NC1=O` (stereo unspecified), which Potency is on record?
A: inconclusive: 15.8 µM [inhibitor, partial curve]

Q: For `COc1ccc(CC(=O)NNC(=S)Nc2ccc(Br)cc2)cc1`, which “activity change, negative = inhibition” value is on record?
A: inactive: 27.5%

Q: `O=C1NC(=S)N/C1=C\c1cccc([N+](=O)[O-])c1` was tested. Which Potency did it give?
A: inconclusive: 31.6 µM [inhibitor, single point]

Q: How did the Potency turn out when `Cc1ccc(SCCNC(=S)Nc2cc(C)ccc2C)cc1` was run?
A: inconclusive: 25.1 µM [inhibitor, single point]

Q: With `CC1=NN(c2nc(-c3ccc(C)cc3)cs2)C(=O)C1N=Nc1ccc2ccccc2c1` (stereo unspecified) as the molecule, how does the “activity change, negative = inhibition” value read?
A: inactive: 12.6%

Q: Which “activity change, negative = inhibition” value does the source give for `Oc1[nH]c2ccccc2c1C=Nc1ccc2c(c1)OCCO2` here?
A: inactive: -14.7%

Q: `CC(=O)Oc1oc(-c2ccccc2)nc1C=Nc1ccccc1` was tested. Which Potency did it give?
A: inconclusive: 25.1 µM [inhibitor, single point]

Q: Which “activity change, negative = inhibition” value does the source give for `COc1ccc(-c2noc(CSc3nc(N)c(-c4ccccc4)c(=O)[nH]3)n2)cc1OC` here?
A: inactive: 1.7%

Q: How did the Potency turn out when `Cc1ccc(C(C)C)c2c1C(c1ccc3c(c1)OCO3)CC(=O)O2` (stereo unspecified) was run?
A: inconclusive: 35.5 µM [inhibitor, partial curve]

Q: Which Potency does the source give for `Cc1c(N=Cc2c(O)n(Cc3ccco3)c(=O)c3ccccc23)c(=O)n(-c2ccccc2)n1C` here?
A: inconclusive: 25.1 µM [inhibitor, partial curve]

Q: With `N/C(=N\OC(=O)CCCN1C(=O)c2ccccc2C1=O)c1ccc(Cl)cc1` as the molecule, how does the Potency read?
A: inconclusive: 0.251 µM [inhibitor, full curve]

Q: For `CCCOC(=O)c1ccc(Oc2c(-c3ccc(O)cc3O)n[nH]c2C)cc1`, which “activity change, negative = inhibition” value is on record?
A: inactive: 13.4%

Q: With `Cc1cccnc1Nc1nc(-c2ccc(O)c(O)c2)cs1` as the molecule, how does the Potency read?
A: inconclusive: 3.16 µM [inhibitor, partial curve]

Q: For `O=C(CSC(=S)N1CCOCC1)Nc1nc(-c2ccccc2)c(-c2ccccc2)o1`, which Potency is on record?
A: inconclusive: 5.01 µM [inhibitor, full curve, poor fit]

Q: How did the Potency turn out when `Cc1[nH]n(-c2ccc(F)cc2)c(=O)c1/C=N/c1sc2c(c1C#N)CCCC2` was run?
A: inconclusive: 5.01 µM [inhibitor, full curve, poor fit]

Q: `Oc1ccc2ccccc2c1C1Nc2cccc3cccc(c23)N1` was tested. Which Potency did it give?
A: inconclusive: 7.94 µM [inhibitor, partial curve]

Q: Which Potency does the source give for `CC(CCc1nc2ccccc2s1)(c1ccc(O)cc1)c1ccc(O)cc1` here?
A: inconclusive: 1.58 µM [inhibitor, partial curve]

Q: `CCSc1ncc(/C=N/Nc2ccc(F)cc2)n1C` was tested. Which Potency did it give?
A: inconclusive: 2.51 µM [inhibitor, full curve]

Q: How did the Potency turn out when `COc1ccc(NC(=O)Cn2nnc(-c3ccccc3NC(=O)c3ccco3)n2)cc1` was run?
A: inconclusive: 20 µM [inhibitor, single point]

Q: For `COc1ccc(CCNC(=O)c2nc3ncccn3n2)cc1OC`, which “activity change, negative = inhibition” value is on record?
A: inactive: -1.43%

Q: How did the “activity change, negative = inhibition” value turn out when `CCCCCCCCCCC/C=C\C(C)(C)/C=C\CCCC(=O)O` was run?
A: inactive: -7.63%

Q: How did the Potency turn out when `NS(=O)(=O)c1ccc(NC(=O)N2c3ccccc3Sc3ccccc32)cc1` was run?
A: inconclusive: 2 µM [inhibitor, full curve]

Q: How did the Potency turn out when `Cc1cc2c(cc1C)N(C(=O)CN1C(=O)c3ccccc3C1=O)C(C)(C)c1ssc(=S)c1-2` was run?
A: inconclusive: 20 µM [inhibitor, partial curve]

Q: `CCCCCCN(C(=O)CCCCCN1C(=O)NC(c2ccc(-c3ccccc3)cc2)C(C(=O)OCc2ccccc2)=C1C)C(C(=O)NCCCC)c1ccc(O)c(C(=O)OC)c1` (stereo unspecified) was tested. Which “activity change, negative = inhibition” value did it give?
A: inactive: -0.741%

Q: For `COc1ccccc1NC(=S)NCCc1c[nH]c2ccccc12`, which Potency is on record?
A: inconclusive: 20 µM [inhibitor, partial curve]

Q: Which Potency does the source give for `CCOc1cc(/C=C2/C(=O)ON=C2C)ccc1OCc1ccc(F)cc1` here?
A: inconclusive: 0.631 µM [inhibitor, full curve]

Q: With `Cc1ccc(/C=N/c2sc3c(c2C#N)CCC3)s1` as the molecule, how does the “activity change, negative = inhibition” value read?
A: inactive: -8.2%

Q: How did the Potency turn out when `N#CC1=C2SCN(Cc3ccco3)CN2C(=O)CC1c1cccc2ccccc12` (stereo unspecified) was run?
A: inconclusive: 25.1 µM [inhibitor, partial curve]
